# PubChem BioAssay AID1347073 (National Center for Advancing Translational Sciences (NCATS), 2019)
# The whole screen tested about 45,000 compounds, of which about 200 (0.44%) were called active. The inconclusive results got no clear call from the source; some entries with a clear call stand among them for comparison. Calls come from the whole dose curve; as a rule, active = well fitted activation curve with a large enough effect; inconclusive = small, poorly fitted or top-dose-only effect; inactive = no such curve, though single readings can be large or run the other way. Potencies beside an inconclusive call are fits to weak or partial responses and may not hold up.
# Experiment: qHTS of TDP-43 Inhibitors: NCGC Sytravon Library Screen; note: nearly all actives have a fitted effect of over 55% in size; for growth rescue (activation): 0% is about no effect
# Conditions: yeast TDP-43 toxicity rescue, BacTiter-Glo growth, 24 h; growth rescue (activation): at 46.1 µM (top of the series)
# How it was run: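 TDP-43-expressing yeast, pregrown in raffinose, seeded at OD600 0.02 in galactose medium with compound for 24 hr at 30 deg C. Growth read by BacTiter-Glo luminescence, so rescue of toxicity appears as activation.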
# Potency is the fitted concentration of half-maximal effect; tags give direction and shape of the fitted curve.
Structure (SMILES),Potency,growth rescue (activation)
Cc1ccccc1Nc1nc(N)nc(COC(=O)c2ccccc2)n1,"inconclusive: 22.4 µM [activator, partial curve, poor fit]",
O=C(NC(=S)NCCSc1ccccc1)c1cccnc1,"inconclusive: 20 µM [activator, partial curve, poor fit]",
CCOc1ccccc1NC(=O)COc1cccnc1[N+](=O)[O-],"inconclusive: 3.55 µM [activator, partial curve, poor fit]",
COc1ccc(NC(=O)C2COc3ccccc3O2)cc1 (centres undefined),inactive,
Cc1nc2ccccc2nc1OCc1cccc(Cl)c1,"inconclusive: 10 µM [activator, partial curve, poor fit]",
Clc1cnc(N/N=C/c2ccco2)c(Cl)c1,"inconclusive: 35.5 µM [activator, single point]",
CCOC(=O)C(=NC1CCCCC1)NNc1cccc(C(F)(F)F)c1,"inconclusive: 12.6 µM [activator, partial curve]",
CC(=O)c1cccc(NC(=O)C2Cc3c(-c4ccc5c(c4)OCO5)ccnc3O2)c1 (centres undefined),,inconclusive: 67.7% [activator]
COc1ccc2c(CC(=O)N3CCc4cc(OC)c(OC)cc4C3)coc2c1,"inconclusive: 10 µM [activator, partial curve, poor fit]",
N=c1sccn1CC(=O)Nc1cc(S(=O)(=O)N2CCCCC2)ccc1Cl,"inconclusive: 35.5 µM [activator, partial curve, poor fit]",
CCCOc1ccc(F)cc1-c1cc(C(=O)NC(C)C)[nH]n1,,inconclusive: 31.8% [activator]
O=C(c1ccc(N2CCCC2=O)cc1)N1CCN(c2cccc(C(F)(F)F)c2)CC1,"inconclusive: 20 µM [activator, single point]",
Cc1cnc(C(=O)OCC(=O)Nc2ccc(Oc3ccccc3)cc2)cn1,"inconclusive: 8.91 µM [activator, partial curve, poor fit]",
COc1ccc(-c2csc3ncnc(N4CCN(c5ccccc5OC)CC4)c23)cc1,active: 14.1 µM,
Cn1cnnc1Sc1ccc(/C=C(\CC(=O)O)c2nc3ccccc3s2)cc1[N+](=O)[O-],"inconclusive: 35.5 µM [activator, single point]",
COc1cccc(CNc2nc(C(F)(F)F)nc3ccccc23)c1,active: 15.8 µM,
O=C(Nc1ccc(Cl)cc1Cl)NC1CCN(S(=O)(=O)c2ccc(F)cc2)CC1,"inconclusive: 35.5 µM [activator, single point]",
O=C(Nc1cccc(Cl)c1N1CCOCC1)c1ccc2c(c1)OCCO2,"inconclusive: 20 µM [activator, partial curve, poor fit]",
COc1ccc(S(=O)(=O)N2CCN(Cc3ccc4c(c3)OCO4)CC2)cc1F,inactive,
Cc1nn(C)c(Cl)c1/C=N/OC(=O)c1ccccc1,"inconclusive: 7.94 µM [activator, partial curve, poor fit]",
COc1ccc2cc(C(=O)C3CCCN(C(=O)CCc4cnn(C)c4)C3)ccc2c1 (centres undefined),"inconclusive: 10 µM [activator, partial curve]",
O=C(Nc1cccc2ncccc12)c1ccc(F)cc1,"inconclusive: 12.6 µM [activator, single point]",

Structure (SMILES),Potency,growth rescue (activation)
O=C(Nc1ccccc1C(=O)NC1CC1)c1ccc([N+](=O)[O-])o1,"inconclusive: 12.6 µM [activator, partial curve, poor fit]",
CN(C)C(CNC(=O)c1cc(-c2ccco2)nc2ccccc12)c1ccccc1 (centres undefined),inactive,
CCOc1ccc(N(CC(=O)NC2CCCC2)C(=O)Cn2nnc(-c3ccc(C)o3)n2)cc1,inactive,
COc1ccccc1NC(=S)NCCc1ccc(F)cc1,"inconclusive: 14.1 µM [activator, partial curve, poor fit]",
COc1ccc(-n2nnnc2SCc2nc3ccccc3s2)cc1,"inconclusive: 17.8 µM [activator, partial curve, poor fit]",
COc1ccc(-n2c(SCCNCCO)nc3sc4c(c3c2=O)CCCC4)cc1,,inconclusive: -25.8% [activator]
COc1ccc(N2CCN(c3oc(/C=C/c4ccccc4OC)nc3C#N)CC2)cc1,inactive,
CCN(C(=O)COc1ccc(C(C)=O)cc1)c1cccc2ccccc12,"inconclusive: 31.6 µM [activator, single point]",
COc1cc(Cl)ccc1OCc1cc(C(=O)N2C[C@H]3CC[C@H]2C3)no1,"inconclusive: 20 µM [activator, partial curve, poor fit]",
O=S(=O)(NCc1ccco1)c1ccc(Cl)s1,,inconclusive: 38.4% [activator]
O=C(CN1CCN(CC(=O)Nc2ccccc2Cc2ccccc2)CC1)Nc1ccccc1Cl,inactive,
COC(=O)c1ccc(NC(=O)NC(C)c2c(-n3cccc3)sc(C)c2C)cc1 (centres undefined),inactive,
O=C(NCC1CC1)C1Cc2c(-c3ccc4c(c3)OCO4)ccnc2O1 (centres undefined),,inconclusive: 33.2% [activator]
COc1cccc(C(=O)C2CCCN(Cc3ccc(OC)c(Cn4cncn4)c3)C2)c1 (centres undefined),"inconclusive: 35.5 µM [activator, single point]",
COC(=O)C1=C(N)c2c(F)cccc2C1(C#N)c1ccc(F)cc1 (centres undefined),"inconclusive: 31.6 µM [activator, single point]",
O/C(=C\c1nc2ccccc2nc1/C=C(\O)c1ccccc1)c1ccccc1,"inconclusive: 35.5 µM [activator, single point]",
Cc1c(Cl)cccc1NC(=O)C1Cc2ccccc2CN1C(=O)c1ccccc1 (centres undefined),"inconclusive: 35.5 µM [activator, single point]",
COc1cccc(-n2nnnc2SCC(=O)NC2CCCCC2)c1,inactive,
Cc1cccc(OCCNC(=S)NC(=O)c2cccnc2)c1,"inconclusive: 6.31 µM [activator, full curve, poor fit]",
O=C(O)c1ccc(/C=N/NC(=O)c2ccc(Br)cc2)cc1,inactive,
CCN1CCN(c2ccc(S(=O)(=O)N3CCOCC3)cc2N)CC1,inactive,
O=C(O)c1ccc2c(c1)N(Cc1ccccc1)C(=O)c1ccccc1S2,"inconclusive: 35.5 µM [activator, partial curve, poor fit]",
